T1: Carcinoembryonic antigen (CEA), Carcinoembryonic antigen-related cell adhesion molecule 5 (CEACAM5), on cells (human), P06731
T1 chain: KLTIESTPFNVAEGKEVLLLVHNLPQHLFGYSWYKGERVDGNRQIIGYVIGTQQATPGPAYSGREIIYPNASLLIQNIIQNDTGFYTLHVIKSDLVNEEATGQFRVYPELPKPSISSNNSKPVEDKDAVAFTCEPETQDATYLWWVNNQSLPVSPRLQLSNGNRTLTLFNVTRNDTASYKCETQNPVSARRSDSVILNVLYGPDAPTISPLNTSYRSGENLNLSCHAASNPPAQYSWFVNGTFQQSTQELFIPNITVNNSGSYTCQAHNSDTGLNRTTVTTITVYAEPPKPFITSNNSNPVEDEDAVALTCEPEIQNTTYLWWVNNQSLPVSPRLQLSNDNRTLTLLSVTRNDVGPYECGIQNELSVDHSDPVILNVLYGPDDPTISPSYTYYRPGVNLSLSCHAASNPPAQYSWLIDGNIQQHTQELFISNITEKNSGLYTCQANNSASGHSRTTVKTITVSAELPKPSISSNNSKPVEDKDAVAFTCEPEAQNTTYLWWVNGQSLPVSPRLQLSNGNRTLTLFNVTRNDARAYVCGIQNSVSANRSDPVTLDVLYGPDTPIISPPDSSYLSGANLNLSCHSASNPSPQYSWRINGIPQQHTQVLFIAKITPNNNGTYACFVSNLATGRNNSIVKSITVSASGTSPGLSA


Assays:
[1] = biological target: T1, Carcinoembryonic antigen (CEA), …; assay: FACS on MKN-45 cells; both hemibodies mixed 1:1, concentration given for each antibody; detection with anti-human IgG(H+L) secondary antibody
[2] = biological target: T1, Carcinoembryonic antigen (CEA), …; assay: flow cytometry on MKN-45 cells, both SPLIT antibodies combined, detection with anti-huIgG(H+L)-Alexa488

Row | EC50 (read off the curve) (µg/ml each Ab) [1] | EC50 [2] [µg/mL] | Binder
1 | 0.7 | – | P1AD8749 + P1AD8592 (combination of both hemibodies, 1:1) (protein) heavy 1: QVQLVQSGAEVKKPGASVKVSCKASGYTFTEFGMNWVRQAPGQGLEWMGWINTKTGEATYVEEFKGRVTFTTDTSTSTAYMELRSLRSDDTAVYYCARWDFAYYVEAMDYWGQGTTVTVSSASTKGPSVFPLAPSSKSTSGGTAALGCLVKDYFPEPVTVSWNSGALTSGVHTFPAVLQSSGLYSLSSVVTVPSSSLGTQTYICNVNHKPSNTKVDKKVEPKSCDKTHTCPPCPAPEAAGGPSVFLFPPKPKDTLMISRTPEVTCVVVDVSHEDPEVKFNWYVDGVEVHNAKTKPREEQYNSTYRVVSVLTVLHQDWLNGKEYKCKVSNKALGAPIEKTISKAKGQPREPQVCTLPPSRDELTKNQVSLSCAVKGFYPSDIAVEWESNGQPENNYKTTPPVLDSDGSFFLVSKLTVDKSRWQQGNVFSCSVMHEALHNHYTQKSLSLSPG heavy 2: QVQLVQSGAEVKKPGASVKVSCKASGYTFTEFGMNWVRQAPGQGLEWMGWINTKTGEATYVEEFKGRVTFTTDTSTSTAYMELRSLRSDDTAVYYCARWDFAYYVEAMDYWGQGTTVTVSSASTKGPSVFPLAPSSKSTSGGTAALGCLVKDYFPEPVTVSWNSGALTSGVHTFPAVLQSSGLYSLSSVVTVPSSSLGTQTYICNVNHKPSNTKVDKKV[human IgG1 Fc with changes skipped]GGGGSGGGGSGGGGSGGGGSVTLKESGPVLVKPTETLTLTCTVSGFSLSTYSMSWIRQPPGKALEWLGFIGSRGDTYYASWAKGRLTISKDTSKSQVVLTMTNMDPVDTATYYCARERDPYGGGAYPPHLWGRGTLVTVSS heavy 3: QVQLVQSGAEVKKPGASVKVSCKASGYTFTEFGMNWVRQAPGQGLEWMGWINTKTGEATYVEEFKGRVTFTTDTSTSTAYMELRSLRSDDTAVYYCARWDFAYYVEAMDYWGQGTTVTVSSASTKGPSVFPLAPSSKSTSGGTAALGCLVKDYFPEPVTVSWNSGALTSGVHTFPAVLQSSGLYSLSSVVTVPSSSLGTQTYICNVNHKPSNTKVDKKV[human IgG1 Fc with changes skipped] heavy 4: QVQLVQSGAEVKKPGASVKVSCKASGYTFTEFGMNWVRQAPGQGLEWMGWINTKTGEATYVEEFKGRVTFTTDTSTSTAYMELRSLRSDDTAVYYCARWDFAYYVEAMDYWGQGTTVTVSSASTKGPSVFPLAPSSKSTSGGTAALGCLVKDYFPEPVTVSWNSGALTSGVHTFPAVLQSSGLYSLSSVVTVPSSSLGTQTYICNVNHKPSNTKVDKKVEPKSCDKTHTCPPCPAPEAAGGPSVFLFPPKPKDTLMISRTPEVTCVVVDVSHEDPEVKFNWYVDGVEVHNAKTKPREEQYNSTYRVVSVLTVLHQDWLNGKEYKCKVSNKALGAPIEKTISKAKGQPREPQVCTLPPSRDELTKNQVSLSCAVKGFYPSDIAVEWESNGQPENNYKTTPPVLDSDGSFFLVSKLTVDKSRWQQGNVFSCSVMHEALHNHYTQKSLSLSPGGGGGSGGGGSGGGGSGGGGSIQMTQSPSSLSASVGDRVTITCQSSHSVYSDNDLAWYQQKPGKAPKLLIYQASKLASGVPSRFSGSGSGTDFTLTISSLQPEDFATYYCLGGYDDESDTYGFGGGTKVEIK light: DIQMTQSPSSLSASVGDRVTITCKASAAVGTYVAWYQQKPGKAPKLLIYSASYRKRGVPSRFSGSGSGTDFTLTISSLQPEDFATYYCHQYYTYPLFTFGQGTKLEIKRTVAAPSVFIFPPSDEQLKSGTASVVCLLNNFYPREAKVQWKVDNALQSGNSQESVTEQDSKDSTYSLSSTLTLSKADYEKHKVYACEVTHQGLSSPVTKSFNRGEC
2 | – | 0.9 | P1AF0712 + P1AF0713 (both SPLIT antibodies combined) (protein) heavy 1: QVQLVQSGAEVKKPGASVKVSCKASGYTFTEFGMNWVRQAPGQGLEWMGWINTKTGEATYVEEFKGRVTFTTDTSTSTAYMELRSLRSDDTAVYYCARWDFAYYVEAMDYWGQGTTVTVSSASTKGPSVFPLAPSSKSTSGGTAALGCLVKDYFPEPVTVSWNSGALTSGVHTFPAVLQSSGLYSLSSVVTVPSSSLGTQTYICNVNHKPSNTKVDKKV[human IgG1 Fc with changes skipped] heavy 2: QVQLVQSGAEVKKPGASVKVSCKASGYTFTEFGMNWVRQAPGQGLEWMGWINTKTGEATYVEEFKGRVTFTTDTSTSTAYMELRSLRSDDTAVYYCARWDFAYYVEAMDYWGQGTTVTVSSASTKGPSVFPLAPSSKSTSGGTAALGCLVKDYFPEPVTVSWNSGALTSGVHTFPAVLQSSGLYSLSSVVTVPSSSLGTQTYICNVNHKPSNTKVDKKVEPKSCDKTHTCPPCPAPEAAGGPSVFLFPPKPKDTLMISRTPEVTCVVVDVSHEDPEVKFNWYVDGVEVHNAKTKPREEQYNSTYRVVSVLTVLHQDWLNGKEYKCKVSNKALGAPIEKTISKAKGQPREPQVCTLPPSRDELTKNQVSLSCAVKGFYPSDIAVEWESNGQPENNYKTTPPVLDSDGSFFLVSKLTVDKSRWQQGNVFSCSVMHEALHNHYTQKSLSLSPGGGGGSGGGGSGGGGSGGGGSQAVVIQESALTTPPGETVTLTCGSSTGAVTASNYANWVQEKPDHLFTGLIGGHNNRPPGVPARFSGSLIGDKAALTIAGTQTEDEAIYFCALWYSDHWVIGGGTKLTVL heavy 3: QVQLVQSGAEVKKPGASVKVSCKASGYTFTEFGMNWVRQAPGQGLEWMGWINTKTGEATYVEEFKGRVTFTTDTSTSTAYMELRSLRSDDTAVYYCARWDFAYYVEAMDYWGQGTTVTVSSASTKGPSVFPLAPSSKSTSGGTAALGCLVKDYFPEPVTVSWNSGALTSGVHTFPAVLQSSGLYSLSSVVTVPSSSLGTQTYICNVNHKPSNTKVDKKVEPKSCDKTHTCPPCPAPEAAGGPSVFLFPPKPKDTLMISRTPEVTCVVVDVSHEDPEVKFNWYVDGVEVHNAKTKPREEQYNSTYRVVSVLTVLHQDWLNGKEYKCKVSNKALGAPIEKTISKAKGQPREPQVCTLPPSRDELTKNQVSLSCAVKGFYPSDIAVEWESNGQPENNYKTTPPVLDSDGSFFLVSKLTVDKSRWQQGNVFSCSVMHEALHNHYTQKSLSLSPG heavy 4: QVQLVQSGAEVKKPGASVKVSCKASGYTFTEFGMNWVRQAPGQGLEWMGWINTKTGEATYVEEFKGRVTFTTDTSTSTAYMELRSLRSDDTAVYYCARWDFAYYVEAMDYWGQGTTVTVSSASTKGPSVFPLAPSSKSTSGGTAALGCLVKDYFPEPVTVSWNSGALTSGVHTFPAVLQSSGLYSLSSVVTVPSSSLGTQTYICNVNHKPSNTKVDKKV[human IgG1 Fc with changes skipped]GGGGSGGGGSGGGGSGGGGSHVKLQESGPGLVQPSQSLSLTCTVSGFSLTDYGVHWVRQSPGKGLEWLGVIWSGGGTAYNTALISRLNIYRDNSKNQVFLEMNSLQAEDTAMYYCARRGSYPYNYFDAWGQGTTVTVSSAST light: DIQMTQSPSSLSASVGDRVTITCKASAAVGTYVAWYQQKPGKAPKLLIYSASYRKRGVPSRFSGSGSGTDFTLTISSLQPEDFATYYCHQYYTYPLFTFGQGTKLEIKRTVAAPSVFIFPPSDEQLKSGTASVVCLLNNFYPREAKVQWKVDNALQSGNSQESVTEQDSKDSTYSLSSTLTLSKADYEKHKVYACEVTHQGLSSPVTKSFNRGEC

Reference: patent US20230272116A1, “ANTIBODIES WHICH BIND TO CANCER CELLS AND TARGET RADIONUCLIDES TO SAID CELLS” (Hoffmann-La Roche Inc., priority 2020, published 2023)
